# Test results published in PubChem BioAssay AID886 (National Center for Advancing Translational Sciences (NCATS), 2007).
# About 2,500 (3.4%) of roughly 73,000 compounds were called active. Inconclusive means that the source gave no clear call. Such entries were picked first, then a sample of the others. The call rests on the fitted dose curve; in most records, active means well fitted inhibition curve with a large enough effect; inconclusive means small, poorly fitted or top-dose-only effect; inactive means no such curve, though single readings can be large or run the other way. Where the call is inconclusive, the potency comes from a doubtful curve fit. Some structures have more than one record in an assay (separate samples or runs), and their calls can disagree.
# Target: 3-hydroxyacyl-CoA dehydrogenase type-2 (Homo sapiens) (UniProt Q99714)
# Sequence of UniProt Q99714 (Q99714 whole entry, looked up): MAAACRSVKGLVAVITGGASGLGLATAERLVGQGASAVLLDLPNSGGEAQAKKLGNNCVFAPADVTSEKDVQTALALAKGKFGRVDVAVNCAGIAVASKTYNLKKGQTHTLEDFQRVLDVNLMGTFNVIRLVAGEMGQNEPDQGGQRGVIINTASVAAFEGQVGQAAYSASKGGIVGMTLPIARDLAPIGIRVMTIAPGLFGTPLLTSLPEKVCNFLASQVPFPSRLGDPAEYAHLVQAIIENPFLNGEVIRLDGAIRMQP
# Sequence of UniProt Q99714 (Q99714 whole entry, looked up): as above
# Assay: qHTS Assay for Inhibitors of HADH2 (Hydroxyacyl-Coenzyme A Dehydrogenase, Type II); further: nearly all actives have a fitted effect of over 60% in size
# Details: recombinant HADH2, NADH fluorescence, beta-hydroxybutyryl-CoA; activity change, negative = inhibition: at 57.1 µM (top of the series)
# In short: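 NADH fluorescence (ex 360/em 450 nm) read every 30 s for 4 min; activity taken as last-minus-first time point difference. Enzyme 20 nM, NAD+ 1 mM, beta-hydroxybutyryl-CoA 90 uM, pH 9.0 Tris buffer.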
# On the % scale 0 is the no-effect control and ±100 the full control effect; potency means the concentration at half of the fitted maximal effect; tags describe the fitted curve by direction and shape.
SMILES,Potency,"activity change, negative = inhibition"
Cc1cc(N2C(=O)C(O)=C(C(=O)c3ccc(C)o3)C2c2cccs2)no1 (configuration not stated),"inconclusive: 39.8 µM [inhibitor, single point]",–
COCCSc1ccccc1C(=O)Nc1nnc(C)s1,"inconclusive: 25.1 µM [inhibitor, single point]",–
CCCC(=O)Nc1ccc(-c2nc3cc(C)c(C)cc3o2)c(O)c1,active: 3.16 µM,–
CCOC(=O)c1c(C)[nH]c(C(=O)OC/C(O)=C(\C#N)c2nc3ccccc3[nH]2)c1C,–,inactive: -1.54%
Cc1csc2ncc(C(=O)NC(C)c3ccccc3)c(=O)n12 (configuration not stated),active: 20 µM,–
COc1ccccc1C1CC(c2ccccc2)Nc2ncnn21 (configuration not stated),"inconclusive: 39.8 µM [inhibitor, single point]",–
O=C(CCCn1c(=O)c2sccc2n(Cc2ccc(F)cc2)c1=O)NCc1ccco1,–,inactive: 1.14%
CC(=Nc1ccc(C)c(C)c1)C1=C(O)CSC1=O,"inconclusive: 25.1 µM [inhibitor, partial curve]",–
CCC(Sc1ncccc1C(=O)O)C(=O)N1CCOCC1 (configuration not stated),"inconclusive: 31.6 µM [inhibitor, single point]",–
COCCn1c(=O)c(-c2ccc(Cl)cc2)nc2cnc(Oc3ccccc3)nc21,–,inactive: 5.89%
CCCCC(=O)NCCc1cc2c(C)ccc(C)c2[nH]c1=O,"inconclusive: 2 µM [inhibitor, partial curve]",–
O=C(CCC1N=C2c3ccccc3N=C(SCc3ccc(Cl)cc3)N2C1=O)NCc1ccco1 (configuration not stated),"inconclusive: 39.8 µM [inhibitor, single point]",–
COCCN(CCOC)Cc1c(O)ccc2c3c(c(=O)oc12)CCC3,active: 3.98 µM,–
c1cncc(CNc2ccnc(-c3ccc4c(c3)OCO4)n2)c1,active: 25.1 µM,–
C[C@H](NC(=O)C1(c2ccccc2)CCN(C(=O)[C@H]2CSCN2C(=O)OC(C)(C)C)CC1)C(=O)O,"inconclusive: 0.0398 µM [inhibitor, full curve, poor fit]",–
S=C(c1ccc(-c2cc(Cl)ccc2Cl)o1)N1CCOCC1,"inconclusive: 6.31 µM [inhibitor, full curve]",–
O=C(Nc1nc2ccccc2n1CCOc1ccc(Cl)cc1)c1ccco1,"inconclusive: 31.6 µM [inhibitor, single point]",–
O=C1CCCC2=C1C1(CCCC1)N=C(Nc1nc3ccccc3s1)N2,"inconclusive: 39.8 µM [inhibitor, single point]",–
Cc1ccc(CNC(=O)C2CNc3cc(C)ccc3O2)cc1 (configuration not stated),"inconclusive: 1 µM [inhibitor, full curve]",–
CCC1(C)Cc2c(C#N)c(N)n(N)c(=S)c2CO1 (configuration not stated),"inconclusive: 39.8 µM [inhibitor, partial curve, poor fit]",–
COc1ccc(-c2nnc3ccc(SCC(=O)N4CCOCC4)nn23)cc1,"inconclusive: 39.8 µM [inhibitor, single point]",–
Cc1nc(C)c(-c2csc(NCc3ccco3)n2)s1,"inconclusive: 5.01 µM [inhibitor, partial curve]",–
CCc1cc(C(=O)c2ccccc2OC)c(N)s1,"inconclusive: 39.8 µM [inhibitor, single point]",–
Cc1cc(N2CCC(C)CC2)n2ncc(-c3ccccc3)c2n1,"inconclusive: 31.6 µM [inhibitor, single point]",–

SMILES,Potency,"activity change, negative = inhibition"
O=C1C2CC=C(Cl)CC2C(=O)N1CC1Cc2ccccc2CO1 (configuration not stated),"inconclusive: 31.6 µM [inhibitor, single point]",–
CC(C)(C)c1cc(=O)n2c(C#N)c(C#N)nc2[nH]1,active: 20 µM,–
CCOC(=O)N1CCN(C(=O)CCCn2c(=S)[nH]c3ccccc3c2=O)CC1,–,inactive: -24.7%
COc1ccc(-c2cn3ccccc3n2)cc1OC,"inconclusive: 31.6 µM [inhibitor, single point]",–
CCCn1c(SCc2ccccc2)nc2c1c(=O)[nH]c(=O)n2C,"inconclusive: 39.8 µM [inhibitor, single point]",–
COc1ccc(C(NC(=O)C(C)(C)C)NC(=O)C(C)(C)C)cc1,–,inactive: 2.42%
NCCSS(=O)(=O)CCN,–,inactive: 9.9% [at 11.4 µM]
Cn1c(NC(=O)CC(C)(C)C)cc(=O)n(C)c1=O,"inconclusive: 31.6 µM [inhibitor, single point]",–
O=C(NCc1cc(F)cc2c1OCCO2)[C@H]1C[C@@H]1[C@H](NP(=O)(c1ccccc1)c1ccccc1)c1ccccc1,–,inactive: 6.08%
c1csc(-c2cn3c(n2)SCC3)c1,"inconclusive: 25.1 µM [inhibitor, partial curve]",–
CCn1cc(C(=O)N=c2sc3ccccc3n2C)c(=O)c2ccc(C)nc21,"inconclusive: 7.94 µM [inhibitor, single point]",–
Clc1ccc(CSc2ncn[nH]2)cc1,–,inactive: -7.06%
Cn1c(=O)c2c(nc(CN3CCN(Cc4ccccc4)CC3)n2Cc2ccccc2)n(C)c1=O,"inconclusive: 12.6 µM [inhibitor, partial curve]",–
O=S(=O)(c1ccc(-c2csc(-c3cccnc3)n2)cc1)N1CCCC1,"inconclusive: 25.1 µM [inhibitor, single point]",–
O=C(c1c[nH]c2ccc(S(=O)(=O)N3CCC4(CC3)OCCO4)cc2c1=O)N1CCOCC1,active: 25.1 µM,–
Cc1cc(NC(=O)c2ccc(NC(=O)c3cccs3)cc2)no1,–,inactive: -22.6%
N#Cc1c2c(c(NCCCN3CCOCC3)n3c1nc1ccccc13)CCC2,"inconclusive: 39.8 µM [inhibitor, single point]",–
c1ccc(Nc2nc(-c3ccc4c(c3)OCO4)nc3ccccc23)cc1,"inconclusive: 39.8 µM [inhibitor, single point]",–
Nc1nc(N)c2nc(-c3ccccc3)c(N)nc2n1,active: 3.16 µM,–
c1ccc2c(c1)nnn2Cc1nnc2sc(-c3ccncc3)nn12,"inconclusive: 31.6 µM [inhibitor, single point]",–
CC(C)OC(=O)c1cn(-c2ccccc2)nc1-c1ccco1,"inconclusive: 7.94 µM [inhibitor, full curve]",–
CCCCOC(=O)CNc1nnc(SCC(=O)OCC)[nH]c1=O,"inconclusive: 2 µM [inhibitor, full curve]",–
CCOC(=O)CCc1c(C)c2ccc(O)cc2oc1=O,active: 3.98 µM,–
CC(C)C[C@@H](CC(=O)N[C@H](CC(=O)N[C@@H]1CCCC[C@H]1C(=O)N[C@H](CC(=O)N[C@@H](CCC(=O)O)CC(=O)O)Cc1ccccc1)C(C)C)NC(=O)[C@@H]1CCCC[C@H]1N,–,inactive: -9.35%

SMILES,Potency,"activity change, negative = inhibition"
O=C(NCc1cccnc1)c1cnc2sccn2c1=O,active: 25.1 µM,–
CCN(CC)C(=O)CSc1nnc([C@H](CCSC)NC(=O)OC(C)(C)C)o1,–,inactive: 5.39%
COc1cc(NC(=O)c2nnn(Cc3ccc(SC)cc3)c2N)cc(OC)c1,active: 31.6 µM,–
O=C(c1cncc(Br)c1)N1CCN(c2ccc(N3CCOCC3)nn2)CC1,"inconclusive: 31.6 µM [inhibitor, single point]",–
Cc1cc(C)nc(SCNC(=O)c2ccccc2)n1,"inconclusive: 39.8 µM [inhibitor, single point]",–
O=C(CSc1ncn(-c2ccccc2)n1)NCc1ccccc1,–,inactive: -4.26%
CNc1nc(C)c(C#N)c(-c2ccccc2)c1C(C)=O,"inconclusive: 3.98 µM [inhibitor, single point]",–
CCC(c1nnnn1C(C)(C)C)N1CCN(c2cc(Cl)ccc2C)CC1 (configuration not stated),–,inactive: -8.24%
CCOC(=O)C1CCN(S(=O)(=O)c2cccc(-c3csc(C)n3)c2)CC1,active: 25.1 µM,–
Nc1c(C(=O)NCCN2CCOCC2)c2nc3ccccc3nc2n1-c1cccc(F)c1,"inconclusive: 31.6 µM [inhibitor, single point]",–
CCN(CC)CCn1c(=S)[nH]c2cc3c(cc2c1=O)OCO3,"inconclusive: 25.1 µM [inhibitor, single point]",–
CC(C)Cn1cc(C(=O)N2CCOCC2)c2c3ccccc3n(C)c2c1=O,"inconclusive: 12.6 µM [inhibitor, partial curve]",–
Cc1nc2c(c(=O)n1Cc1ccccc1Cl)c1nc3ccccc3nc1n2Cc1ccco1,"inconclusive: 3.16 µM [inhibitor, partial curve]",–
Cc1cccc(C)c1NC(=O)CSc1nnc([C@H](C)NC(=O)OC(C)(C)C)o1,"inconclusive: 7.94 µM [inhibitor, single point]",–
O=C(O)c1ccc(CSc2n[nH]c(-c3ccco3)n2)cc1,"inconclusive: 25.1 µM [inhibitor, partial curve]",–
C(=N\C(/N=C/c1ccco1)c1ccco1)/c1ccco1,"inconclusive: 5.01 µM [inhibitor, full curve, poor fit]",–
C=C(C)CSc1nnc(-c2ccccc2)n1N,"inconclusive: 39.8 µM [inhibitor, single point]",–
O=C(CSc1nnc(-c2ccc3c(c2)OCCO3)o1)N1CCCC1,"inconclusive: 25.1 µM [inhibitor, single point]",–
COc1ccc([C@@H]2CC(=O)c3c(O)cc(O[C@@H]4O[C@@H](CO[C@@H]5O[C@@H](C)[C@@H](O)[C@@H](O)[C@H]5O)[C@@H](O)[C@@H](O)[C@H]4O)cc3O2)cc1O,–,inactive: 0.643%
Cc1[nH]c2ccccc2c1C(c1ccccn1)N1CCC(C(N)=O)CC1 (configuration not stated),"inconclusive: 5.01 µM [inhibitor, full curve]",–
CCCC(O)C(CC)CO (configuration not stated),–,inactive: 1.23%
COC(=O)c1cc2c(=O)n3ccccc3nc2n(C)c1=N,active: 20 µM,–
Cc1noc(C)c1-c1nccc(Nc2ccc(F)cc2)n1,"inconclusive: 15.8 µM [inhibitor, partial curve]",–
CCCCN(Cc1cc2cc(OC)ccc2[nH]c1=O)C(=O)c1ccccn1,"inconclusive: 15.8 µM [inhibitor, single point]",–
